Experimental data: the supplement of paper PMC3334620
The full ranking holds about 33,000 sequences; the median of “E-score (-0.5 to 0.5)” is about -0.012, and the highest 2% start at about 0.27. The list shows a part of the results.

Target: T1, Vhr1 (UniProt P40522)
T1 sequence: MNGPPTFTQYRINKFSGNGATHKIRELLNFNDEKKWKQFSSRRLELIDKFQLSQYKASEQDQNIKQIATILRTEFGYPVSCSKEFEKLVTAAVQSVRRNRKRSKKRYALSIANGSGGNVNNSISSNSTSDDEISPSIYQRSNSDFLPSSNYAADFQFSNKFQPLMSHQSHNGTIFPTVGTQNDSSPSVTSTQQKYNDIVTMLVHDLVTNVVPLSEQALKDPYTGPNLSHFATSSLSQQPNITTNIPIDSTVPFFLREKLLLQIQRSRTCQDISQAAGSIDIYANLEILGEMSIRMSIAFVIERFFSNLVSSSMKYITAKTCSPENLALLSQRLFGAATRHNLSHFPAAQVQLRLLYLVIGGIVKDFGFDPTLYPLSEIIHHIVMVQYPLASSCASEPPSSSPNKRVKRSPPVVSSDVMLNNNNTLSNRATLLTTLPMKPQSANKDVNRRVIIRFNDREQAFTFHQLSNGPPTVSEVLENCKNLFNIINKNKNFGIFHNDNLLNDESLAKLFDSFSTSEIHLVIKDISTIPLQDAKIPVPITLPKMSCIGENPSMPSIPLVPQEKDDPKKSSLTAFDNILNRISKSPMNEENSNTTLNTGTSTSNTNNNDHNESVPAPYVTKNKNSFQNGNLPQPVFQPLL
Assay: PBM E-score (8-mer binding enrichment) (E-score (-0.5 to 0.5)); higher = stronger / more preferred TF binding; most listed sequences are background and not binding sites
Conditions: protein concentration: 200 nM; construct: GST-full length
How it was run: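 Detection of bound protein used fluorescent anti-GST, with scans normalised by masliner. The proteins were GST-tagged yeast transcription factors applied at about 100-200 nM to universal all-10-mer Agilent arrays made double-stranded by primer extension. Each ungapped eight-base word, pooled with its reverse complement, was scored with an E-score from the Universal PBM Analysis Suite.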

Sequence	PBM E-score
CTTCCACA	-0.145
CCTAAAAC	-0.29
TACTCATA	0.222
ATGTTAAG	-0.0427
ACGAGCTA	-0.135
GAAATCCC	-0.214
GGTCTGGA	-0.071
TCCCGCGA	0.115
ACTTATGC	-0.0166
GAGATATC	-0.0534
CGCCGTAG	-0.00474
GGCGAACC	0.101
CAAAACTC	0.00076
GCCCGCTA	-0.183
CGAATTAC	-0.128
TGATGACA	0.0316
AGGGTGCG	-0.0564
CGGGTCCA	-0.11
CCGCGCGG	0.346
ACAATACA	0.0254
ACCAATAC	0.107
TTAACAAA	-0.168
CGATACAA	-0.0317

Sequence	PBM E-score
AGAGAGCA	-0.0395
CACAAATA	0.0469
GCGTCGCA	0.0903
AGGAGCGG	-0.187
AAGGCCAC	-0.111
CCACCAGC	0.198
GACGCCGA	0.206
GCCGGGAC	-0.195
CCCCATTC	-0.0459
GAAACTGC	-0.218
CGAGTTCC	0.0292
TAATCATA	0.314
ATGCCACA	0.114
GGAGGTAC	-0.0892
AACAGCAT	0.0405
ATAGGGCA	-0.231
CCATACCG	0.129
TATGAATA	-0.0433
AGTACCTA	0.058
AGTTAACA	0.00248
GTAAACAC	0.113
CACTTTCA	-0.116
GCATGACC	-0.00817

Sequence	PBM E-score
GACCGTCA	-0.259
CCCAGGAG	-0.0461
CCAGGGCA	-0.0412
ACGGGATA	0.0764
ATAAGGTC	0.0363
AGTACTTA	-0.0623
AGCCAACG	-0.126
AGCGAACT	-0.0232
GACATATC	0.21
CAGAACAA	0.0968
CCTCGAGC	0.0411
AATGACCA	0.0449
AGTTCGAC	-0.0798
CGTGCACA	-0.105
TCGGAAAA	-0.0937
GCTCCGCA	0.087
ATGCATTC	0.0199
CCCTCGAA	-0.109
GCAACTTA	-0.113
ACCACTAC	0.0525
GTGCTAAA	0.0463
